# Data published in publication PMC7806638.
# Amino acid sequences for entries named in this document (tags omitted). A change or cut given only in a name is not applied to a line headed by its entry. Chains listed by the source or under a name are the forms on record and can include a tag or linker.
# UniProt P06748: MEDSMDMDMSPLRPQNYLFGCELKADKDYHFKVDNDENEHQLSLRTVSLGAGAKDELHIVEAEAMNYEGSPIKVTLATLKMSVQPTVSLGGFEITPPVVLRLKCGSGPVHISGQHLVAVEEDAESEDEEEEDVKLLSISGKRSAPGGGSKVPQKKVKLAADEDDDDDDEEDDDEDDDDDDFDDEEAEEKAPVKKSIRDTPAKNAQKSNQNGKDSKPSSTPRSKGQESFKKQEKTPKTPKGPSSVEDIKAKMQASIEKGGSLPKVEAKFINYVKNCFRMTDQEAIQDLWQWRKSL
# mRFP1-labeled nucleophosmin with C21 substituted to phenylalanine (P06748, form named): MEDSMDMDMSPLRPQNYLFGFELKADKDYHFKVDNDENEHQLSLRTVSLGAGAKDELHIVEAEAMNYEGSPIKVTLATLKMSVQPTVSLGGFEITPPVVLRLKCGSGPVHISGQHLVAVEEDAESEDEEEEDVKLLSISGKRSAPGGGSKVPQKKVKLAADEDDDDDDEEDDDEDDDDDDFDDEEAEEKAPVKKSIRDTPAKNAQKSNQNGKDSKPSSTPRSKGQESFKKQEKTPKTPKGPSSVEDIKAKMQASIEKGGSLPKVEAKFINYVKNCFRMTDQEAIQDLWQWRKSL
# eGFP-labeled nucleophosmin with C21 substituted to alanine (P06748, form named): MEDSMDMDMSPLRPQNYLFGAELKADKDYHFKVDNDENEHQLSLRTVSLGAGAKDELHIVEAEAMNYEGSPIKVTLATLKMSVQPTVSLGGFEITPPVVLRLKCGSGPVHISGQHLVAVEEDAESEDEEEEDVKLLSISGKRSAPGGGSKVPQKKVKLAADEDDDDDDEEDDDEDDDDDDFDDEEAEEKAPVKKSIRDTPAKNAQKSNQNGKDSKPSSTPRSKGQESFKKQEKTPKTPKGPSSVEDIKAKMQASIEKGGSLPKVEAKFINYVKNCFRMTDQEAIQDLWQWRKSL
# UniProt Q8N726: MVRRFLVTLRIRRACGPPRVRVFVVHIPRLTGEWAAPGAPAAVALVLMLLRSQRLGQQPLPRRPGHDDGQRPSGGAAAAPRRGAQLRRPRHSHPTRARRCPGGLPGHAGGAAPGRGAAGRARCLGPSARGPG
# These are yes or no findings as the source states them, for the method shown. For some of these results: Binding seen in cells or lysates may run through a third protein. Some results given as binding are weak or reduced against the parent protein; the word gives no strength.
# B1: fibrillarin, endogenous (protein, UniProt P22087 1-321)
# chain: MKPGFSPRGGGFGGRGGFGDRGGRGGRGGFGGGRGRGGGFRGRGRGGGGGGGGGGGGGRGGGGFHSGGNRGRGRGGKRGNQSGKNVMVEPHRHEGVFICRGKEDALVTKNLVPGESVYGEKRVSISEGDDKIEYRAWNPFRSKLAAAILGGVDQIHIKPGAKVLYLGAASGTTVSHVSDIVGPDGLVYAVEFSHRSGRDLINLAKKRTNIIPVIEDARHPHKYRMLIAMVDVIFADVAQPDQTRIVALNAHTFLRNGGHFVISIKANCIDSTASAEAVFASEVKKMQQENMKPQEQLTLEPYERDHAVVVGVYRPPPKVKN
# Tests used:
# [1] = biological target: mRFP1-labeled wild-type nucleophosmin (human) (UniProt P06748); assay: native gel or EMSA; native PAGE: lysates (10 mM Tris pH 7.5, 150 mM NaCl, 0.5 mM EDTA, 0.5% NP-40) mixed with native buffer (50 mM Tris pH 6.8, 10 mM DTT, 10% glycerol), not boiled, 7.5% Tris-glycine gel without SDS, Western blot; some samples from cells treated with NSC348884 (10 µM, 24 h)
# [2] = biological target: eGFP-labeled nucleophosmin with C21 substituted to phenylalanine (human) (UniProt P06748); assay: co-IP; GFP-Trap nanobeads on lysates of transfected 293T cells, 1 h at 4 °C, washed with 10 mM Tris pH 7.5, 150 mM NaCl, 0.5 mM EDTA, SDS-PAGE and blot; some samples from cells treated with 10 µM NSC348884 for 24 h
# [3] = biological target: mRFP1-labeled nucleophosmin with C21 substituted to alanine (human) (UniProt P06748); assay: native gel or EMSA; semi-native PAGE: same unboiled lysates in native buffer on a gel with SDS (2%), Western blot; some samples from cells treated with NSC348884 (10 µM, 24 h)
# [4] = biological target: mRFP1-labeled nucleophosmin with C21 substituted to alanine (human) (UniProt P06748); assay: native gel or EMSA; native PAGE: lysates (10 mM Tris pH 7.5, 150 mM NaCl, 0.5 mM EDTA, 0.5% NP-40) mixed with native buffer (50 mM Tris pH 6.8, 10 mM DTT, 10% glycerol), not boiled, 7.5% Tris-glycine gel without SDS, Western blot; some samples from cells treated with NSC348884 (10 µM, 24 h)
# [5] = biological target: eGFP-labeled nucleophosmin with deletion of the first 25 amino acids (human) (UniProt P06748); assay: co-IP; GFP-Trap nanobeads on lysates of transfected 293T cells, 1 h at 4 °C, washed with 10 mM Tris pH 7.5, 150 mM NaCl, 0.5 mM EDTA, SDS-PAGE and blot; some samples from cells treated with 10 µM NSC348884 for 24 h
# [6] = biological target: eGFP-labeled nucleophosmin with deletion of the first 117 amino acids (human) (UniProt P06748); assay: native gel or EMSA; semi-native PAGE: same unboiled lysates in native buffer on a gel with SDS (2%), Western blot; some samples from cells treated with NSC348884 (10 µM, 24 h)
# [7] = biological target: eGFP-labeled nucleophosmin with deletion of the first 117 amino acids (human) (UniProt P06748); assay: native gel or EMSA; native PAGE: lysates (10 mM Tris pH 7.5, 150 mM NaCl, 0.5 mM EDTA, 0.5% NP-40) mixed with native buffer (50 mM Tris pH 6.8, 10 mM DTT, 10% glycerol), not boiled, 7.5% Tris-glycine gel without SDS, Western blot; some samples from cells treated with NSC348884 (10 µM, 24 h)
# [8] = biological target: eGFP-labeled nucleophosmin with C21 substituted to alanine (human) (UniProt P06748); assay: native gel or EMSA; semi-native PAGE: same unboiled lysates in native buffer on a gel with SDS (2%), Western blot; some samples from cells treated with NSC348884 (10 µM, 24 h)
# [9] = biological target: eGFP-labeled nucleophosmin with C21 substituted to alanine (human) (UniProt P06748); assay: native gel or EMSA; native PAGE: lysates (10 mM Tris pH 7.5, 150 mM NaCl, 0.5 mM EDTA, 0.5% NP-40) mixed with native buffer (50 mM Tris pH 6.8, 10 mM DTT, 10% glycerol), not boiled, 7.5% Tris-glycine gel without SDS, Western blot; some samples from cells treated with NSC348884 (10 µM, 24 h)
# [10] = biological target: eGFP-labeled nucleophosmin with deletion of the first 117 amino acids (human) (UniProt P06748); assay: FRET or BRET; FLIM-FRET in living co-transfected cells, eGFP donor and mRFP1 acceptor, eGFP lifetime before and after mRFP1 photobleaching, 37 °C; some cells treated with 10 µM NSC348884 for 2 h
# [11] = biological target: eGFP-labeled nucleophosmin with deletion of the first 117 amino acids (human) (UniProt P06748); assay: co-IP; GFP-Trap nanobeads on lysates of transfected 293T cells, 1 h at 4 °C, washed with 10 mM Tris pH 7.5, 150 mM NaCl, 0.5 mM EDTA, SDS-PAGE and blot; some samples from cells treated with 10 µM NSC348884 for 24 h
# [12] = biological target: eGFP-labeled wild-type nucleophosmin (human) (UniProt P06748); assay: native gel or EMSA; native PAGE: lysates (10 mM Tris pH 7.5, 150 mM NaCl, 0.5 mM EDTA, 0.5% NP-40) mixed with native buffer (50 mM Tris pH 6.8, 10 mM DTT, 10% glycerol), not boiled, 7.5% Tris-glycine gel without SDS, Western blot; some samples from cells treated with NSC348884 (10 µM, 24 h)
# [13] = biological target: eGFP-labeled nucleophosmin with deletion of the first 100 amino acids (human) (UniProt P06748); assay: native gel or EMSA; semi-native PAGE: same unboiled lysates in native buffer on a gel with SDS (2%), Western blot; some samples from cells treated with NSC348884 (10 µM, 24 h)
# [14] = biological target: eGFP-labeled nucleophosmin with deletion of the first 100 amino acids (human) (UniProt P06748); assay: native gel or EMSA; native PAGE: lysates (10 mM Tris pH 7.5, 150 mM NaCl, 0.5 mM EDTA, 0.5% NP-40) mixed with native buffer (50 mM Tris pH 6.8, 10 mM DTT, 10% glycerol), not boiled, 7.5% Tris-glycine gel without SDS, Western blot; some samples from cells treated with NSC348884 (10 µM, 24 h)
# [15] = biological target: eGFP-labeled nucleophosmin with deletion of the first 100 amino acids (human) (UniProt P06748); assay: co-IP; GFP-Trap nanobeads on lysates of transfected 293T cells, 1 h at 4 °C, washed with 10 mM Tris pH 7.5, 150 mM NaCl, 0.5 mM EDTA, SDS-PAGE and blot; some samples from cells treated with 10 µM NSC348884 for 24 h
# [16] = biological target: eGFP-labeled nucleophosmin with deletion of the first 25 amino acids (human) (UniProt P06748); assay: native gel or EMSA; semi-native PAGE: same unboiled lysates in native buffer on a gel with SDS (2%), Western blot; some samples from cells treated with NSC348884 (10 µM, 24 h)
# [17] = biological target: eGFP-labeled nucleophosmin with deletion of the first 25 amino acids (human) (UniProt P06748); assay: native gel or EMSA; native PAGE: lysates (10 mM Tris pH 7.5, 150 mM NaCl, 0.5 mM EDTA, 0.5% NP-40) mixed with native buffer (50 mM Tris pH 6.8, 10 mM DTT, 10% glycerol), not boiled, 7.5% Tris-glycine gel without SDS, Western blot; some samples from cells treated with NSC348884 (10 µM, 24 h)
molecule,measurement,setting,value
eGFP-labeled nucleophosmin with C21 substituted to phenylalanine (from UniProt P06748 1-294),binding,[1],binds
mRFP1-labeled wild-type nucleophosmin (from UniProt P06748 1-294),binding,[2],binds
mRFP1-labeled nucleophosmin with C21 substituted to alanine (from UniProt P06748 1-294),binding,[3],binds
same,binding,[4],binds
endogenous nucleophosmin (from UniProt P06748 1-294),binding,[5],binds
eGFP-labeled nucleophosmin with deletion of the first 117 amino acids (from UniProt P06748 118-294) (domain or fragment),binding,[6],no binding
same,binding,[7],no binding
eGFP-labeled nucleophosmin with C21 substituted to alanine (from UniProt P06748 1-294),binding,[8],binds
same,binding,[9],binds
mRFP1-labeled nucleophosmin with deletion of the first 117 amino acids (from UniProt P06748 118-294) (domain or fragment),binding,[10],no binding
same,binding,[11],no binding
mRFP1-labeled nucleophosmin with C21 substituted to phenylalanine (from UniProt P06748 1-294),binding,[12],binds
eGFP-labeled nucleophosmin with deletion of the first 100 amino acids (from UniProt P06748 101-294) (domain or fragment),binding,[13],no binding
same,binding,[14],no binding
"tumor suppressor p14Arf, endogenous (from UniProt Q8N726 1-132)",binding,[5],no binding
same,binding,[15],no binding
same,binding,[11],no binding
eGFP-labeled nucleophosmin with deletion of the first 25 amino acids (from UniProt P06748 26-294) (domain or fragment),binding,[16],no binding
same,binding,[17],no binding
B1,binding,[5],binds
same,binding,[15],binds
same,binding,[11],binds
